Test results: PubChem BioAssay AID463173 (ICCB-Longwood Screening Facility, Harvard Medical School, 2010)
Hit rate of the full screen: of about 52,000 compounds, about 4,300 (8.3%) were called active. No stated cut-off is given here; in the data, active means survival mostly below about 52% (no sharp cut-off); inactive means mostly above about 56%. This is one part of the list.

Test system: DeltatarO mutant
Assay: growth inhibition of S. aureus wild type versus tarO mutant, primary screen, teichoic acid synthesis inhibitors, RN4220, OD600 (AID 463173)
Conditions: OD600, 18 h, active compounds read low, screened at 18.75 µg/mL (by protocol)

SMILES	survival
CC(C)CN(C(=O)c1cccc(S(=O)(=O)N2CCCCC2)c1)C1CCS(=O)(=O)C1 (centres undefined)	inactive: 67%
Cc1ccc2nc(Nc3cccc(Cl)c3C)c(-n3nc(C)cc3C)nc2c1	inactive: 123%
Cc1c(-c2nc(-c3ccc4c(c3)OCO4)no2)nnn1-c1ccc(Br)cc1F	inactive: 83%
Cc1ccccc1NC(=O)Cn1c(SCC(=O)Nc2ccc(F)cc2)nc2ccccc21	inactive: 95%
CCOC(=O)c1ccc(NC(=O)Cn2c(=O)n(-c3ccc(C)cc3)c(=O)c3c2cnn3C)cc1	inactive: 81%
COc1ccc(S(=O)(=O)Nc2ccccc2C(=O)NCc2ccco2)cc1OC	inactive: 82%
CC1=C(C(=O)Nc2ccccc2)C(c2ccncc2)n2nc(SCc3ccccc3Cl)nc2N1 (centres undefined)	inactive: 74%
O=C(Cn1c(=O)n(Cc2ccco2)c(=O)c2ccccc21)Nc1ccc(Cl)cc1Cl	inactive: 83%
Cc1ccc(S(=O)(=O)Cc2ccc(C(=O)N3CCN(c4cccc(C)c4C)CC3)o2)cc1	inactive: 126%
CCC(Cn1nnc2ccccc2c1=O)NC(=O)Nc1cccc(C)c1C (centres undefined)	inactive: 55%
COc1ccc(C(=O)OCc2cc(=O)n3nc(-c4cccs4)sc3n2)cc1	inactive: 60%
CCC(=O)N1CCc2cc(Br)cc(S(=O)(=O)CCC(=O)N3CCN(c4cccc(C(F)(F)F)c4)CC3)c21	inactive: 57%
Cc1ccc(NC(=O)C2CCCN(c3nnc(C)c4c(C)n(-c5ccccc5)nc34)C2)c(Cl)c1 (centres undefined)	inactive: 99%
O=[N+]([O-])c1cc(-c2nc(-c3ccccc3)no2)ccc1N1CCCCC1	inactive: 53%
CCC(CO)NC(=O)C(=O)Nc1c2c(nn1-c1ccc(F)cc1)CSC2 (centres undefined)	inactive: 80%
CN(C)c1nc(Cl)nc(NCCOc2ccccc2)n1	inactive: 100%
CCOC(=O)c1cnn(Cc2ccccc2)c1N	inactive: 79%
CC(C)(C)c1ccc(S(=O)(=O)NCc2ccc3c(c2)CCN3C(=O)c2ccccc2)cc1	inactive: 67%
CCN(CC)S(=O)(=O)c1ccc2nc(NC(=O)c3cccnc3)sc2c1	inactive: 80%
O=C(c1ccc(Cl)cc1)N1CCC(c2ccncc2)CC1	inactive: 87%
COc1cc(-c2noc(-c3ccc(N4CCN(C)CC4)c([N+](=O)[O-])c3)n2)cc(OC)c1OC	inactive: 105%
O=C(Cn1c(=O)ccc2cc(S(=O)(=O)N3CCCC3)ccc21)NCc1ccc(Cl)cc1	inactive: 102%
O=C(NCCO)c1ccc2[nH]c3c(c2c1)CCCC3	inactive: 85%

SMILES	survival
CCOc1ccc(NC(=O)c2c(Nc3ccc(OC)cc3OC)sc(C(=O)c3ccc(Cl)cc3)c2N)cc1	inactive: 102%
COCCn1c(=O)[nH]c2cc(C(=O)NCc3ccccc3Cl)ccc2c1=O	inactive: 89%
CCOc1ccc(CCNC(=O)CCc2cn(Cc3ccccc3F)c3ccccc23)cc1OCC	inactive: 74%
CCOC(=O)c1cccc(NC(=O)c2cc3sccc3n2Cc2ccc(Cl)cc2)c1	inactive: 106%
CCC(C)C(=O)NCc1ccc(C)cc1 (centres undefined)	inactive: 88%
CCN(c1ncnc2c1cnn2-c1ccc(C)cc1)C1CCCCC1	inactive: 89%
COc1ccccc1CNS(=O)(=O)c1c(C)nc2scc(C)n2c1=O	inactive: 75%
Cc1cc(Nc2ccc(C)c(Cl)c2)n2nc(Cc3ccccc3)nc2n1	active: 31%
CCOc1ccc2oc(=O)cc(CN3CCN(c4cc(C)ccc4C)CC3)c2c1	inactive: 75%
CCOc1cc(S(=O)(=O)NCc2ccc(OC)cc2)c(OCC)cc1-n1cnnn1	inactive: 101%
CC(C)CN(CCCNC(=O)c1cc(=O)[nH]c2ccc(S(=O)(=O)N3CCCCCC3)cc12)CC(C)C	inactive: 77%
CCNC(=O)c1cc2sccc2n1Cc1ccccc1	inactive: 93%
CC(=O)N1c2nc(C(C)C)nn2C2(CCCCC2)[C@@H]2CCCC[C@@H]21	inactive: 93%
O=C(CSc1nnc(-c2cccc(Cl)c2)o1)N1CCc2ccccc21	inactive: 85%
COc1cc(OC)c(NC(=O)C2=C(C)C(=O)OC23CCCCCC3)cc1Cl	inactive: 102%
CCn1c2c(c(=O)n3ncc(C(=O)Nc4cc(Cl)ccc4C)c13)CN(Cc1ccc(OC)cc1)CC2	inactive: 94%
COc1ccc(C2C=C(c3cccc(OC)c3)Nc3c(C(=O)Nc4ccccc4)cnn32)cc1 (centres undefined)	inactive: 52%
Cc1ccn2c(Nc3ccc(C(C)C)cc3)c(-c3cccs3)nc2c1	inactive: 66%
CC(=O)Nc1cccc(NC(=O)CN2C(=O)CCSc3ccccc32)c1	inactive: 95%
Cc1nc2nc(NC(=O)c3ccccc3F)[nH]n2c(=O)c1Cl	inactive: 93%
Cc1cccc(N2CCN(C(=O)c3cccn4c(=O)c5cc(Cl)ccc5nc34)CC2C)c1 (centres undefined)	inactive: 66%
COc1ccc(CNC(=O)CN2C3CCCC2CC(=O)NC3)cc1 (centres undefined)	inactive: 93%
CC(=O)N1c2ccc(S(=O)(=O)NCC3CCC(C(=O)Nc4ccc(C)cc4)CC3)cc2CC1C (centres undefined)	inactive: 70%

SMILES	survival
CN(Cc1ccco1)C(=O)c1ccc2c(c1)N(Cc1ccccc1F)C(=O)c1ccccc1S2	inactive: 115%
COc1ccccc1-c1nnc(SCC(=O)Nc2ccccc2F)o1	inactive: 79%
Cc1ccc(Cl)cc1NC(=O)CCC(=O)N1CC(C)Sc2ccccc21 (centres undefined)	active: 44%
CCC1CN(C(=O)N2CCC(C(=O)N3CCN(c4cccc(C)c4C)CC3)CC2)c2ccccc2O1 (centres undefined)	inactive: 62%
CC(C)(C)Nc1nc(OCC#N)nc(N2CCOCC2)n1	inactive: 113%
COc1cc(CNC(=O)c2ccc3c(c2)N(C)C(=O)C2CCCCN32)cc(OC)c1OC (centres undefined)	inactive: 69%
COc1ccc2c(c1)N(C)/C(=c1/s/c(=C3/C(=O)N(c4ccccc4)N=C3C)n(C)c1=O)S2	inactive: 88%
CC(=O)N1CCc2c(sc3c2c(=O)n(-c2ccccc2)c(=O)n3CC(=O)Nc2ccccc2)C1	inactive: 91%
CCc1ccc(NC(=O)CN2CCCN(Cc3cccc(Cl)c3)S2(=O)=O)cc1	inactive: 100%
COC(=O)c1cc2sc(C)cc2n1CC(=O)Nc1ccc(C)c(C)c1	inactive: 64%
Cc1ccc(C2=C(CC(=O)O)C(=O)CC2)cc1	inactive: 101%
CCOC(=O)c1ccc(N2C(=O)CC(NC(C)(C)C)C2=O)cc1 (centres undefined)	inactive: 63%
COc1ccc2c(c1)c1c(c(=O)n(-c3ccc(F)c(Cl)c3)c(=O)n1CC(=O)N1CCCC1)n2C	inactive: 94%
Cc1c2cnn(-c3ccccc3)c(=O)c2c(C)n1CC(=O)NCCc1ccc(Cl)cc1	inactive: 102%
O=C(NC1CCCCC1)/C(=N\O)c1ccccn1	inactive: 97%
O=C(CCC(=O)N1Cc2ccccc2Oc2ncccc21)Nc1ccc(Cl)cc1	active: 37%
COc1ccc(-c2nn(CC(=O)NC3CCCC3)c3c2cnc2ccc(F)cc23)cc1	active: 46%
CCOc1ccccc1-n1ccnc(NCc2ccc(F)cc2)c1=O	inactive: 103%
CCOc1ccc(N(CC(=O)Nc2ccccc2)S(C)(=O)=O)cc1	inactive: 81%
Cc1cccc(NC(=O)Nc2nnc(N(C)C3CCCCC3)s2)c1C	inactive: 106%
Cc1nn(CC(=O)NCc2ccco2)c(=O)c2cc3ccccc3n12	inactive: 92%
CCc1ccccc1N(C)C(=O)c1cn(CC(C)C)c(=O)c2cc(OC)c(OC)cc12	inactive: 73%
O=C(CSc1nc2nccnc2c(=O)n1CCc1c[nH]c2ccccc12)Nc1ccccc1F	active: 46%

SMILES	survival
CCN(CC)c1nc(-c2ccc(C(C)(C)C)cc2)nc2ccccc12	active: -1%
COc1ccc2c(CNCC(C)c3ccccc3)c(C(=O)O)n(Cc3ccc(F)cc3Cl)c2c1 (centres undefined)	inactive: 107%
COc1ccc(/C=C(\C#N)c2nc(-c3cc(Cl)ccc3OC)cs2)cc1	inactive: 91%
O=C1CS(=O)(=O)C2(C(=O)N(Cc3cccc(F)c3)c3ccccc32)N1c1ccccc1 (centres undefined)	inactive: 99%
CC1CCN(S(=O)(=O)c2ccc3c(c2)N(CC(=O)NCc2ccccc2)C(=O)CO3)CC1	inactive: 116%
COC(=O)c1ccc(Cl)cc1NC(=O)N1CC=C(c2c[nH]c3ccccc23)CC1	inactive: 67%
COc1ccc(OC)c(NC2=C(c3ccccc3)C(=O)c3ccccc32)c1	inactive: 62%
COc1ccc(N2CCN(C(=O)c3cc4c(-c5ccccc5F)nn(C)c4s3)CC2)cc1	inactive: 65%
O=C(Cn1ncc2c(=O)oc3ccccc3c21)Nc1cc(F)ccc1F	inactive: 78%
Cc1ccc(C2CC(=O)N(Cc3ccccc3F)c3c2c(C)nn3-c2nc(C)cc(C)n2)cc1 (centres undefined)	inactive: 71%
CCn1cc(C(=O)N2CCN(c3cccc(Cl)c3)CC2)c(=O)c2cc(S(=O)(=O)N3CCOCC3)ccc21	inactive: 81%
Cc1ccc(Cc2nc3ccccc3nc2SCC(=O)N2CCc3ccccc32)cc1	inactive: 93%
CCOc1ccc(CCNC(=O)CCc2c(C)nc3c(c(C)nn3-c3ccccc3)c2C)cc1OCC	inactive: 50%
COc1cc(OC)c(NC(=O)c2c(C)oc3ncn(C)c(=O)c23)cc1Cl	inactive: 103%
CCOc1ccc(NC(=O)c2ccc(NC(=O)CCS(=O)(=O)c3cccs3)cc2)cc1	inactive: 68%
COc1ccc(NC(=O)c2nnn(Cc3ccccc3C)c2N)c(OC)c1	inactive: 71%
O=C(CSc1nc2ccccc2o1)NC1CC1	inactive: 95%
Cc1nn(-c2ccc(F)cc2)c(-n2cccc2)c1C(=O)N1CCN(c2ccc(F)cc2)CC1	inactive: 80%
Cc1ccc(C(=O)Nc2c(-c3ccccc3)nc3ccccn23)cc1C	active: 34%
O=C(CSc1ccc(-c2ccccn2)nn1)Nc1ccc(F)c(F)c1	active: 27%
